# Test results reported in the supplement of paper PMC8728848.
# The other results are listed elsewhere or left out.
# B1: DCIR (Homo sapiens), Q9UMR7 (protein)
# chain: MTSEITYAEVRFKNEFKSSGINTASSAASKERTAPHKSNTGFPKLLCASLLIFFLLLAISFFIAFVIFFQKYSQLLEKKTTKELVHTTLECVKKNMPVEETAWSCCPKNWKSFSSNCYFISTESASWQDSEKDCARMEAHLLVINTQEEQDFIFQNLQEESAYFVGLSDPEGQRHWQWVDQTPYNESSTFWHPREPSDPNERCVVLNFRKSPKRWGWNDVNCLGPQRSVCEMMKIHL
# Columns and labels:
# Test in all cases: glycan array binding signal (z-score within array); higher = stronger binding
# Conditions in all cases: glycan notation: IUPAC condensed, linker removed
# Gal4S6S(b1-4)GlcNAc = target: Gal4S6S(b1-4)GlcNAc
# Method in brief: (§1)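 Columns mapping to the same glycan were averaged after glycan names were converted to IUPAC-condensed notation. The data come from 3228 arrays in the Consortium for Functional Glycomics database, limited to those with an available protein sequence. Binding is reported as a within-array Z-score averaged across arrays of one protein sequence and across linkers.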
# Gal6S(b1-4)Glc = target: Gal6S(b1-4)Glc
# Method in brief: as §1
# Gal6S(b1-4)Glc6S = target: Gal6S(b1-4)Glc6S
# Method in brief: as §1
# Gal6S(b1-4)GlcNAc = target: Gal6S(b1-4)GlcNAc
# Method in brief: as §1
# GalNAc(a1-3)Gal = target: GalNAc(a1-3)Gal
# Method in brief: as §1
# GalNAc(a1-3)GalNAc = target: GalNAc(a1-3)GalNAc
# Method in brief: as §1
# [1] = target: GalNAc(b1-3)Gal(a1-4)Gal(b1-4)GlcNAc
# Method in brief: as §1
# GalNAc(b1-3)GalNAc = target: GalNAc(b1-3)GalNAc
# Method in brief: as §1
# GalNAc(b1-4)GlcNAc = target: GalNAc(b1-4)GlcNAc
# Method in brief: as §1
# Glc(a1-4)Glc = target: Glc(a1-4)Glc
# Method in brief: as §1
# Glc(a1-6)Glc(a1-6)Glc = target: Glc(a1-6)Glc(a1-6)Glc
# Method in brief: as §1
# Glc(b1-4)Glc = target: Glc(b1-4)Glc
# Method in brief: as §1
# Glc(b1-6)Glc = target: Glc(b1-6)Glc
# Method in brief: as §1
# GlcA(b1-3)Gal = target: GlcA(b1-3)Gal
# Method in brief: as §1
# GlcA(b1-6)Gal = target: GlcA(b1-6)Gal
# Method in brief: as §1
# [2] = target: GlcNAc(a1-3)Gal(b1-4)GlcNAc
# Method in brief: as §1
# [3] = target: GlcNAc(a1-6)Gal(b1-4)GlcNAc
# Method in brief: as §1
# [4] = target: GlcNAc(b1-2)Gal(b1-3)GalNAc
# Method in brief: as §1
# [5] = target: GlcNAc(b1-2)Man(a1-3)[GlcNAc(b1-2)Man(a1-6)]Man(b1-4)GlcNAc(b1-4)GlcNAc
# Method in brief: as §1
# GlcNAc(b1-3)Gal = target: GlcNAc(b1-3)Gal
# Method in brief: as §1
# [6] = target: GlcNAc(b1-3)Gal(b1-3)GalNAc
# Method in brief: as §1
# GlcNAc(b1-3)Gal(b1-4)Glc = target: GlcNAc(b1-3)Gal(b1-4)Glc
# Method in brief: as §1
# [7] = target: GlcNAc(b1-3)Gal(b1-4)GlcNAc
# Method in brief: as §1
# [8] = target: GlcNAc(b1-3)Gal(b1-4)GlcNAc(b1-3)Gal(b1-4)GlcNAc
# Method in brief: as §1
# GlcNAc(b1-3)GalNAc = target: GlcNAc(b1-3)GalNAc
# Method in brief: as §1
# [9] = target: GlcNAc(b1-3)[GlcNAc(b1-6)]Gal(b1-4)GlcNAc
# Method in brief: as §1
# [10] = target: GlcNAc(b1-3)[GlcNAc(b1-6)]GalNAc
# Method in brief: as §1
# [11] = target: GlcNAc(b1-3)[GlcNAc(b1-6)]GlcNAc(b1-4)GlcNAc
# Method in brief: as §1
# [12] = target: GlcNAc(b1-4)Gal(b1-4)GlcNAc
# Method in brief: as §1
# [13] = target: GlcNAc(b1-4)GlcNAc(b1-4)GlcNAc
# Method in brief: as §1
# [14] = target: GlcNAc(b1-4)GlcNAc(b1-4)GlcNAc(b1-4)GlcNAc(b1-4)GlcNAc
# Method in brief: as §1
# [15] = target: GlcNAc(b1-4)GlcNAc(b1-4)GlcNAc(b1-4)GlcNAc(b1-4)GlcNAc(b1-4)GlcNAc
# Method in brief: as §1
# [16] = target: GlcNAc(b1-4)[GlcNAc(b1-6)]GalNAc
# Method in brief: as §1
# [17] = target: GlcNAc(b1-6)Gal(b1-4)GlcNAc
# Method in brief: as §1
# GlcNAc(b1-6)GalNAc = target: GlcNAc(b1-6)GalNAc
# Method in brief: as §1
# Kdn(a2-3)Gal(b1-3)GlcNAc = target: Kdn(a2-3)Gal(b1-3)GlcNAc
# Method in brief: as §1
# Kdn(a2-3)Gal(b1-4)GlcNAc = target: Kdn(a2-3)Gal(b1-4)GlcNAc
# Method in brief: as §1
# [18] = target: Man(a1-2)Man(a1-2)Man(a1-3)Man
# Method in brief: as §1
# [19] = target: Man(a1-2)Man(a1-2)Man(a1-6)[Man(a1-3)]Man
# Method in brief: as §1
# Man(a1-2)Man(a1-3)Man = target: Man(a1-2)Man(a1-3)Man
# Method in brief: as §1
# [20] = target: Man(a1-2)Man(a1-3)[Man(a1-2)Man(a1-6)]Man
# Method in brief: as §1
# [21] = target: Man(a1-2)Man(a1-3)[Man(a1-2)Man(a1-6)]Man(a1-6)[Man(a1-2)Man(a1-2)Man(a1-3)]Man(b1-4)GlcNAc(b1-4)GlcNAc
# Method in brief: as §1
# [22] = target: Man(a1-2)Man(a1-3)[Man(a1-6)]Man(a1-6)[Man(a1-2)Man(a1-3)]Man(b1-4)GlcNAc(b1-4)GlcNAc
# Method in brief: as §1
# [23] = target: Man(a1-2)Man(a1-6)[Man(a1-3)]Man(a1-6)[Man(a1-2)Man(a1-2)Man(a1-3)]Man(b1-4)GlcNAc(b1-4)GlcNAc
# Method in brief: as §1
# Man(a1-3)[Man(a1-6)]Man = target: Man(a1-3)[Man(a1-6)]Man
# Method in brief: as §1
binder,measurement,setting,value
B1,glycan array binding signal (z-score),Gal4S6S(b1-4)GlcNAc,1.45
same,glycan array binding signal (z-score),Gal6S(b1-4)Glc,0.036
same,glycan array binding signal (z-score),Gal6S(b1-4)Glc6S,4.52
same,glycan array binding signal (z-score),Gal6S(b1-4)GlcNAc,-0.322
same,glycan array binding signal (z-score),GalNAc(a1-3)Gal,-0.365
same,glycan array binding signal (z-score),GalNAc(a1-3)GalNAc,-0.368
same,glycan array binding signal (z-score),[1],-0.239
same,glycan array binding signal (z-score),GalNAc(b1-3)GalNAc,0.178
same,glycan array binding signal (z-score),GalNAc(b1-4)GlcNAc,-0.144
same,glycan array binding signal (z-score),Glc(a1-4)Glc,-0.309
same,glycan array binding signal (z-score),Glc(a1-6)Glc(a1-6)Glc,0.048
same,glycan array binding signal (z-score),Glc(b1-4)Glc,-0.1
same,glycan array binding signal (z-score),Glc(b1-6)Glc,-0.359
same,glycan array binding signal (z-score),GlcA(b1-3)Gal,-0.076
same,glycan array binding signal (z-score),GlcA(b1-6)Gal,-0.391
same,glycan array binding signal (z-score),[2],-0.522
same,glycan array binding signal (z-score),[3],-0.208
same,glycan array binding signal (z-score),[4],-0.358
same,glycan array binding signal (z-score),[5],-0.344
same,glycan array binding signal (z-score),GlcNAc(b1-3)Gal,-0.245
same,glycan array binding signal (z-score),[6],-0.423
same,glycan array binding signal (z-score),GlcNAc(b1-3)Gal(b1-4)Glc,-0.005
same,glycan array binding signal (z-score),[7],-0.314
same,glycan array binding signal (z-score),[8],-0.419
same,glycan array binding signal (z-score),GlcNAc(b1-3)GalNAc,-0.401
same,glycan array binding signal (z-score),[9],-0.549
same,glycan array binding signal (z-score),[10],-0.252
same,glycan array binding signal (z-score),[11],-0.254
same,glycan array binding signal (z-score),[12],-0.253
same,glycan array binding signal (z-score),[13],-0.211
same,glycan array binding signal (z-score),[14],0.043
same,glycan array binding signal (z-score),[15],-0.209
same,glycan array binding signal (z-score),[16],-0.063
same,glycan array binding signal (z-score),[17],-0.376
same,glycan array binding signal (z-score),GlcNAc(b1-6)GalNAc,-0.354
same,glycan array binding signal (z-score),Kdn(a2-3)Gal(b1-3)GlcNAc,-0.081
same,glycan array binding signal (z-score),Kdn(a2-3)Gal(b1-4)GlcNAc,-0.247
same,glycan array binding signal (z-score),[18],-0.113
same,glycan array binding signal (z-score),[19],-0.108
same,glycan array binding signal (z-score),Man(a1-2)Man(a1-3)Man,-0.007
same,glycan array binding signal (z-score),[20],0.098
same,glycan array binding signal (z-score),[21],-0.585
same,glycan array binding signal (z-score),[22],-0.535
same,glycan array binding signal (z-score),[23],-0.335
same,glycan array binding signal (z-score),Man(a1-3)[Man(a1-6)]Man,-0.333
